# The campaign covered roughly 52,000 compounds. About 1,700 (3.3%) were called active. No stated cut-off is given here; in the data, active means survival mostly below about 52% (no sharp cut-off); inactive means mostly above about 56%. This is one part of the list.
# Test system: Wild type
# Assay: growth inhibition of S. aureus wild type versus tarO mutant, primary screen, teichoic acid synthesis inhibitors, RN4220, OD600 (AID 463173)
# Details: S. aureus RN4220 wild type/DeltatarO growth, OD600, 18 h, active compounds read low, screened at 18.75 µg/mL (by protocol)
row,Structure (SMILES),survival
1,CCN(Cc1ccccc1)S(=O)(=O)c1ccc2c(c1)CC(C)N2C(=O)C1CCC1 (centres undefined),inactive: 74%
2,Cc1ccc(N(CC(=O)Nc2cccc(Cl)c2)S(=O)(=O)c2cccs2)cc1,inactive: 123%
3,Cc1ccc2c(c1)N(CCC(=O)NCc1ccccc1Cl)C(=O)CO2,inactive: 75%
4,O=c1c2oc3ccccc3c2n(Cc2ccccc2F)c(=O)n1Cc1ccccc1,inactive: 91%
5,Cc1ccc2onc(CC(=O)Nc3ccc(C(C)C)cc3)c2c1,inactive: 85%
6,O=C(Nc1ccc2c(c1)oc1ccccc12)C1CC1,inactive: 109%
7,COc1cccc(CNC(=O)c2cc3c(=O)oc4ccc(C)cc4c3s2)c1,inactive: 89%
8,CC(=O)N1CCC(N(Cc2ccc(C)o2)C(=O)Nc2ccc(C)cc2)CC1,inactive: 70%
9,COc1ccc(-c2nnc(SCc3cccc(Cl)c3)o2)cc1,active: 13%
10,Cn1c(=O)[nH]c(=O)c2c1nc(NCCc1ccccc1)n2Cc1ccc(F)cc1,inactive: 76%
11,COc1ccc(NC(=O)c2c(NC(=O)c3ccc(Br)cc3)sc3c2CCCC3)cc1,inactive: 157%
12,CCOc1ccc(OCC)c(NS(=O)(=O)c2ccc(-c3coc(C)n3)cc2)c1,inactive: 80%
13,Cn1cc(S(=O)(=O)N2CCOCC2)cc1C(=O)Nc1ccc(Cl)c(C(F)(F)F)c1,inactive: 59%
14,Cc1cc(NC(=O)Nc2nnc(N(C)Cc3ccccc3)s2)ccc1Br,inactive: 95%
15,Cc1ccc(O)c(NC(=O)c2cc(-c3ccccc3O)no2)c1,inactive: 91%
16,COc1cc(NC(=O)c2cn(C3CCCC3)c(=O)c3c2c2ccccc2n3C)cc(OC)c1OC,inactive: 80%
17,Cn1cnc2c(=O)oc3ccc(S(=O)(=O)Nc4ccc(F)cc4)cc3c21,inactive: 72%
18,CCOc1ccc2nc(NC(=O)c3nc(SC)ncc3Cl)sc2c1,inactive: 88%
19,CCOc1ccccc1NC(=O)Cc1noc2ccc(C)cc12,inactive: 82%
20,CCOc1ccc(CNS(=O)(=O)c2ccc(-c3coc(C)n3)cc2)cc1,inactive: 115%
21,COc1ccc(N2CCN(CCCNC(=O)Cn3c(-c4cccs4)cc4ccccc43)CC2)cc1,inactive: 86%
22,COc1ccc2nc(N(Cc3cccnc3)C(=O)C3CCCCC3)sc2c1,inactive: 74%
23,COc1cccc(C2C(C(=O)Nc3ccc(C)cc3C)=C(C)Nc3nc4ccccc4n32)c1OC (centres undefined),inactive: 76%

row,Structure (SMILES),survival
1,CC1(C)C(=O)N(CC(=O)Nc2ccc(Br)cc2F)c2ccccc21,inactive: 67%
2,CCOC(=O)c1cc(S(=O)(=O)N2CCN(c3ccccc3F)CC2)[nH]n1,active: -6%
3,Cc1nc2ccc(S(=O)(=O)N(C)CC(=O)Nc3cccc(C(F)(F)F)c3)cc2s1,inactive: 88%
4,CCCCN(CC)CCCNC(=O)Nc1sc2nc3n(c(=O)c2c1C)CCC(C)CC3 (centres undefined),inactive: 137%
5,CC(NC(=O)C1CCN(c2nc3ccccc3nc2C(F)(F)F)CC1)c1ccccc1 (centres undefined),inactive: 32%
6,CCCCNC(=O)c1cccc(-n2c(C)nc3cccnc32)c1,inactive: 73%
7,Fc1ccc2c(c1)-c1nc(-c3ccccc3)cc(-c3ccccc3)c1CO2,inactive: 72%
8,CCN(CC)S(=O)(=O)N1CCN(S(=O)(=O)N2CCOCC2)CC1,inactive: 118%
9,Cc1c(NC(=O)Nc2ccccc2C(F)(F)F)sc2nc3n(c(=O)c12)CCC(C)CC3 (centres undefined),inactive: 92%
10,COc1ccc(N(C(=O)c2cccc(C)c2)S(=O)(=O)c2ccc(Cl)cc2)cc1,inactive: 78%
11,CC(C)CCNC(=O)c1cnc2sc(N3CCCCC3)nn2c1=O,inactive: 92%
12,CCOc1cc(C(=O)N2CCn3c4c(c5cc(C)ccc53)CCCC42)cc(OCC)c1OCC (centres undefined),inactive: 67%
13,C=CCN1C(=O)C2C(C(=O)NCc3ccccc3)C3C=CC2(O3)C1C(=O)NC(C)(C)C (centres undefined),inactive: 100%
14,Cn1c(=O)n(C)c2cc(/C=C(\C#N)C(N)=C(C#N)C#N)ccc21,inactive: 118%
15,O=C(CCc1nc(-c2cccs2)no1)Nc1cccc([N+](=O)[O-])c1,inactive: 44%
16,CCOc1ccc(-c2ccc(NS(=O)(=O)c3ccc(C)cc3)cc2)nn1,inactive: 77%
17,Cc1cccn2c(=O)c(/C=C(\C#N)c3nc4ccccc4[nH]3)c(Oc3ccc(C(C)(C)C)cc3)nc12,inactive: 83%
18,COc1ccc(CCCc2nnc(SCC(=O)Nc3ccc(C)cc3)o2)cc1,inactive: 72%
19,COc1ccc(C(=O)c2ccc(OC)cc2OC)c(OC)c1,inactive: 114%
20,COc1ccc(CN(CCN2CCOCC2)C(=O)c2cc3sccc3n2Cc2ccccc2)cc1,inactive: 151%
21,Cc1ccc(C)c(N2CCN(C(c3ccccc3)c3nnc(-c4ccccc4F)o3)CC2)c1 (centres undefined),inactive: 53%
22,Cc1ccc(C)c(N2CCN(CCCNC(=O)c3cnn(-c4ccccc4Cl)c3C3CCN(C(=O)OC(C)(C)C)CC3)CC2)c1,inactive: 81%
23,Cc1ccc(C(=O)Nc2sc3c(c2C(=O)NCc2ccco2)CCC(C(C)(C)C)C3)cc1 (centres undefined),inactive: 70%

row,Structure (SMILES),survival
1,O=C(NCc1ccc(F)cc1)c1cc2n(n1)CCCN(Cc1ccc(F)cc1)C2=O,inactive: 86%
2,Cc1ccc(OCC(=O)OCc2cc(=O)n3nc(-c4cccs4)sc3n2)cc1C,inactive: 73%
3,Cc1cc(C)c(NC(=O)Cn2c(=O)n(-c3ccc(CC(=O)NCC4CCCO4)cc3)c(=O)c3ccccc32)c(C)c1 (centres undefined),inactive: 110%
4,Cc1ccc(-c2nc3n(n2)C(=O)CC(c2ccc(Cl)cc2)S3)cc1 (centres undefined),inactive: 89%
5,Cc1ccc(C(=O)Nc2ccc(NC(=O)c3cccs3)cc2)cc1C,inactive: 88%
6,Cc1cc(Cl)ccc1NC(=O)C(=O)NCc1ccco1,inactive: 130%
7,CCOc1ccc(Sc2cc(C(=O)NC(C)c3ccccc3)c3ccccc3n2)cc1 (centres undefined),inactive: 83%
8,Cc1ccsc1CN(C(=O)COc1ccc(Br)cc1)C1CCS(=O)(=O)C1 (centres undefined),inactive: 90%
9,Cc1ccc(OCC(=O)Nc2cc3nn(-c4ccccc4)nc3cc2C)cc1,inactive: 91%
10,CCOc1ccccc1NC(=O)Cn1cc(C(=O)c2cccc(OC)c2)c(=O)c2ccc(C)nc21,inactive: 73%
11,O=C(Cn1c(=O)c2cccn2c2ccccc21)NCCc1ccccc1,inactive: 89%
12,COc1ccc(NC(=O)Cn2c(SCc3cc(C)ccc3C)nc3ccncc32)c(OC)c1OC,inactive: 75%
13,Cc1c(CCNC(=O)c2ccc(Br)o2)sc2nc(-c3ccc(F)cc3)nn12,inactive: 75%
14,COc1ccc2c(CNCc3cccs3)c(C(=O)O)n(Cc3ccccc3)c2c1,inactive: 84%
15,O=C(CSc1nnc(CNC(=O)c2cccc(F)c2)n1-c1ccccc1)Nc1ccccc1F,inactive: 65%
16,Cc1ccc(NC(=O)Cn2cnc3sc(C(=O)O)c(C)c3c2=O)cc1Cl,inactive: 80%
17,CCN1CCN(c2nc3c(S(=O)(=O)c4ccc(Br)cc4)nnn3c3ccsc23)CC1,inactive: 116%
18,COc1cc(NC(=O)CN(c2ccc(C)cc2)S(=O)(=O)c2cccc3nonc23)cc(OC)c1,inactive: 79%
19,CCc1cccc(NC(=O)CSC2=Nc3ccccc3N=C(c3ccc(F)cc3)C2)c1,inactive: 131%
20,CCOc1ccccc1C(=O)Nc1ccc(S(=O)(=O)Nc2nc(C)cc(C)n2)cc1,inactive: 94%
21,COc1ccc2c(c1)c1c(c(=O)n(Cc3ccccc3)c(=O)n1CC(=O)NCc1ccccc1Cl)n2C,inactive: 76%
22,O=C(c1c(F)cccc1F)N1CCCC(c2nc(-c3cccs3)no2)C1 (centres undefined),inactive: 109%
23,Fc1ccc(-c2noc3ncnc(NCCc4ccccc4)c23)cc1,inactive: 64%

row,Structure (SMILES),survival
1,CCOc1ccc(-c2nonc2NC(=O)COc2c(C)cc(C)cc2C)cc1OCC,inactive: 110%
2,CCCCCn1c(C(C)NC(=O)c2ccccc2)nc2ccccc21 (centres undefined),inactive: 77%
3,COc1ccc(Nc2nc(-c3ccc(C)cc3)nc3ccccc23)c(OC)c1,inactive: 70%
4,CCc1nn(CC(=O)NCCc2ccc(OC)cc2OC)c(=O)c2cc3c(OC)cccc3n12,inactive: 98%
5,CCOc1cc(CNC(=O)C2COc3ccccc3C2)cc(OCC)c1OCC (centres undefined),inactive: 73%
6,COc1ccc(-c2nc(C)c(CCNC(=O)C(=O)Nc3ccccc3OC)s2)cc1,inactive: 67%
7,O=C(NC1CCN(Cc2nnnn2Cc2ccc3c(c2)OCO3)CC1)c1ccccc1F,inactive: 90%
8,O=C(NCCc1ccccc1Cl)c1ccc(Cn2c(=O)c3cccn3c3cccnc32)cc1,inactive: 77%
9,Cc1ccccc1N1CC(c2nc3ccccc3n2CCC2CCCCC2)CC1=O (centres undefined),active: 12%
10,COc1ccc(CCn2cc3c(c2-c2ccc(Br)cc2)c(=O)n(C)c(=O)n3C)cc1OC,inactive: 84%
11,Cc1ccc(C(C)C)c(OCC(=O)NCC2(N(C)C)CCCCC2)c1,inactive: 98%
12,Cc1ccccc1C(=O)n1nc(-c2ccco2)nc1NCc1ccc(Cl)cc1,inactive: 87%
13,Cc1ccc(C)c(N2CCN(C(=O)C3CCCN(S(=O)(=O)c4ccc5c(c4)oc(=O)n5C)C3)CC2)c1 (centres undefined),inactive: 85%
14,Cc1ccc(-c2nnc(SCc3ccccc3C)o2)cc1,active: -4%
15,CCc1ccccc1NC(=O)c1c(NC(=O)c2ccccc2)sc2c1CCCC2,inactive: 60%
16,CCOC(=O)C1CCC(CN(Cc2cccc(Br)c2)S(=O)(=O)c2ccc(C)cc2)CC1 (centres undefined),inactive: 127%
17,CCc1ccc(C(=O)c2cn(CC(=O)Nc3ccc4c(c3)OCO4)c3cc(OC)c(OC)cc3c2=O)cc1,inactive: 107%
18,COc1ccc(S(=O)(=O)Nc2ccc3c(c2)N(C(C)=O)CCC3)cc1F,inactive: 58%
19,O=C(COc1ccc(Cl)cc1)Nc1ccc(-c2nc3ccccc3s2)c(O)c1,inactive: 74%
20,COc1ccc(OC)c2sc(N3CCN(C(=O)C(C)(C)C)CC3)nc12,inactive: 69%

# From PubChem BioAssay AID463173 (ICCB-Longwood Screening Facility, Harvard Medical School, 2010)
